The text below walks through data of article doi:10.1101/2023.12.13.571598 (bioRxiv, 2023).

Data set [1] deals with the molecule itself. The experiment in a line: ThT fluorescence aggregation assay + other: negative-stain TEM.
Data set [2] concerns the molecule itself. The experiment in a line: ThT fluorescence aggregation assay.

B1: WT 4R tauRD ([…]) (domain or fragment)
chain: not shown
For the protein B1, the binding result in data set [1] is “binds”.

B2: P301S 4R tauRD ([…]) (domain or fragment)
chain: not shown
In the case of B2, the binding result in data set [2] was “binds”.

B3: P301S tauRD_EL_QK (domain or fragment)
chain: not shown
As to B3, the binding result in data set [1] was “binds”.

B4: P301S tauRD_QK (domain or fragment)
chain: not shown
With B4, the binding result in data set [1] was “binds”.
